# Experimental data: PubChem BioAssay (Tox21)
# Values joined by “and” are separate entries in the source; they are usually repeats but may differ in a detail not shown here. Identical values can stand only once. The inconclusive results got no clear call from the source; some entries with a clear call stand among them for comparison. For part of these data: A potency beside an inconclusive call is a rough fit, not a confirmed value. Active and inactive are the calls of the source. Unless noted, the call rests on the fitted dose curve; in most records, active means well fitted curve in the direction sought with a large enough effect in the repeat runs; inconclusive means weak or mixed curves; inactive means no such curve, though single readings can be large; an effect the other way counts as inactive or inconclusive.
# Columns and labels:
# [1] = qHTS RealTime-Glo MT Cell Viability Assay in HepG2 cells - 32 hour (AID 1224877); conditions: RealTime-Glo luminescence; series mostly up to 76.8 µM; further: nearly all actives have a fitted effect of over 55% in size; further: potency means the concentration at half of the fitted maximal effect
# Outline: (§1)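 Cell number in HepG2 cultures estimated from NanoLuc luminescence generated by metabolic reduction of a prosubstrate by living cells. The homogeneous, nonlytic format allowed repeated reads at 0, 8, 16, 24, 32 and 40 h of compound exposure.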
# [2] = A CellTox Green Cytotoxicity Assay to monitor cytotoxicity in HepG2 cells - 32 hour (AID 1224883); conditions: CellTox Green fluorescence; series mostly up to 76.8 µM; further: potency means the concentration at half of the fitted maximal effect; nearly all actives have a fitted effect of over 50% in size
# Outline: (§2)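 Measurements at 0, 8, 16, 24, 32 and 40 h of treatment captured CellTox Green fluorescence in HepG2 cells that had been co-plated with reagent and preincubated 5 h at 37 C/5% CO2.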
# [3] = qHTS RealTime-Glo MT Cell Viability Assay in HepG2 cells - 16 hour (AID 1224885); conditions: RealTime-Glo luminescence; series mostly up to 76.8 µM; further: potency means the concentration at half of the fitted maximal effect; nearly all actives have a fitted effect of over 50% in size
# Outline: as §1
# [4] = qHTS assay to identify small molecule antagonists of the estrogen receptor alpha (ER-alpha) signaling pathway using the BG1 cell line in the presence of 0.1 nM 17-beta-estradiol - cell viability counter screen (AID 1259241); conditions: VM7Luc4E2 (BG1) viability, CellTiter-Fluor protease, 22 h, 0.1 nM estradiol agonist added; series mostly up to 92.4 µM; further: potency means the concentration at half of the fitted maximal effect; nearly all actives have a fitted effect of over 40% in size
# Outline: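 Live-cell protease activity (CellTiter-Fluor fluorescence, 30 min) was read in the same wells after VM7Luc4E2 cells had been exposed to compounds with 0.1 nM 17beta-estradiol for 22 hr at 37C.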
# [5] = A CellTox Green Cytotoxicity Assay to monitor cytotoxicity in HepG2 cells - 24 hour (AID 1224878); conditions: CellTox Green fluorescence; series mostly up to 76.8 µM; further: potency means the concentration at half of the fitted maximal effect; nearly all actives have a fitted effect of over 45% in size
# Outline: as §2
# [6] = qHTS RealTime-Glo MT Cell Viability Assay in HEK293 cells - 24 hour (AID 1224886); conditions: RealTime-Glo luminescence; series mostly up to 76.8 µM; further: potency means the concentration at half of the fitted maximal effect; nearly all actives have a fitted effect of over 50% in size
# Outline: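 Homogeneous bioluminescent viability format in HEK293 cells (600 cells/well). Following 5 h at 37 C/5% CO2, 23 nL compound was pintooled; the signal was measured repeatedly during 40 h incubation.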
# [7] = A CellTox Green Cytotoxicity Assay to monitor cytotoxicity in HEK293 cells - 16 hour (AID 1224888); conditions: CellTox Green fluorescence; series mostly up to 76.8 µM; further: nearly all actives have a fitted effect of over 35% in size
# Outline: (§3)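 Tox21 screen in HEK293: membrane-impermeant cyanine dye fluoresces on binding dead-cell DNA; compound pinned 5 h post-seeding, plates held at 37 C, signal read repeatedly through 40 h.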
# [8] = qHTS assay to identify small molecule antagonists of the androgen receptor (AR) signaling pathway using the MDA cell line in the presence of 0.5 nM R1881 - cell viability counter screen (AID 1259242); conditions: MDA-kb2 viability, CellTiter-Fluor protease fluorescence, 16 h; series mostly up to 92.4 µM; further: nearly all actives have a fitted effect of over 45% in size; further: potency means the concentration at half of the fitted maximal effect
# Outline: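 Concentration-response screen of compounds for toxicity in MDA-kb2 reporter cells: 16 hr at 37C with 0.5 nM R1881, endpoint live-cell protease fluorescence measured in the reporter wells.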
# [9] = qHTS assay to identify small molecule phospholipidosis (PLD) inducers (AID 1259344; active means well fitted curve in the direction sought with a large enough effect; inconclusive means small, poorly fitted or top-dose-only effect, or another doubt; inactive means no such curve, though single readings can be large; an effect the other way counts as inactive or inconclusive; further: potency means the concentration at half of the fitted maximal effect); conditions: HepG2 phospholipidosis, LipidTOX Red imaging, 24 h; series mostly up to 38.3 µM
# Outline: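 Accumulated phospholipid, stained red by LipidTOX during 24 h compound treatment of HepG2 cells at 37 C, is quantified from images as pit number and intensity, normalised per cell using Hoechst-stained nuclei.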
# [10] = qHTS RealTime-Glo MT Cell Viability Assay in HEK293 cells - 0 hour (AID 1224880); conditions: RealTime-Glo luminescence; series mostly up to 76.8 µM; further: nearly all actives have a fitted effect of over 45% in size; further: potency means the concentration at half of the fitted maximal effect
# Outline: (§4)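 HEK293 + NanoLuc + prosubstrate, 600 cells/well; 5 h, 37 C/5% CO2; compound 23 nL in DMSO by pintool; 37 C; luminescence read at 0, 8, 16, 24, 32 and 40 h time points.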
# [11] = qHTS RealTime-Glo MT Cell Viability Assay in HEK293 cells - 8 hour (AID 1224887); conditions: RealTime-Glo luminescence; series mostly up to 76.8 µM; further: nearly all actives have a fitted effect of over 50% in size; further: potency means the concentration at half of the fitted maximal effect
# Outline: as §4
# [12] = A CellTox Green Cytotoxicity Assay to monitor cytotoxicity in HepG2 cells - 40 hour (AID 1224879); conditions: CellTox Green fluorescence; series mostly up to 76.8 µM; further: nearly all actives have a fitted effect of over 40% in size; further: potency means the concentration at half of the fitted maximal effect
# Outline: as §2
# [13] = A CellTox Green Cytotoxicity Assay to monitor cytotoxicity in HEK293 cells - 8 hour (AID 1224884); conditions: CellTox Green fluorescence; series mostly up to 76.8 µM; further: potency means the concentration at half of the fitted maximal effect; nearly all actives have a fitted effect of over 35% in size
# Outline: as §3
# [14] = A CellTox Green Cytotoxicity Assay to monitor cytotoxicity in HEK293 cells - 32 hour (AID 1224881); conditions: CellTox Green fluorescence; series mostly up to 76.8 µM; further: potency means the concentration at half of the fitted maximal effect; nearly all actives have a fitted effect of over 40% in size
# Outline: as §3
# [15] = biological target: Estrogen receptor (Homo sapiens) (UniProt P03372); assay: qHTS assay to identify small molecule antagonists of the estrogen receptor alpha (ER-alpha) signaling pathway using the BG1 cell line in the presence of 0.1 nM 17-beta-estradiol (AID 1259244); conditions: VM7Luc4E2 (BG1) ERE-luciferase, antagonist mode, 0.1 nM E2, 22 h; series mostly up to 92.4 µM
# Outline: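 Compounds were tested against 0.1 nM (final) 17beta-estradiol in VM7Luc4E2 cells, which express full-length ER-alpha and an ERE-luciferase reporter; luminescence was recorded following 22 h exposure.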
# [16] = A CellTox Green Cytotoxicity Assay to monitor cytotoxicity in HepG2 cells - 8 hour (AID 1224890); conditions: CellTox Green fluorescence; series mostly up to 76.8 µM; further: nearly all actives have a fitted effect of over 45% in size; further: potency means the concentration at half of the fitted maximal effect
# Outline: as §2
# Tags describe the fitted curve by direction and shape.
# Sequence of UniProt P03372 (P03372 whole entry, looked up): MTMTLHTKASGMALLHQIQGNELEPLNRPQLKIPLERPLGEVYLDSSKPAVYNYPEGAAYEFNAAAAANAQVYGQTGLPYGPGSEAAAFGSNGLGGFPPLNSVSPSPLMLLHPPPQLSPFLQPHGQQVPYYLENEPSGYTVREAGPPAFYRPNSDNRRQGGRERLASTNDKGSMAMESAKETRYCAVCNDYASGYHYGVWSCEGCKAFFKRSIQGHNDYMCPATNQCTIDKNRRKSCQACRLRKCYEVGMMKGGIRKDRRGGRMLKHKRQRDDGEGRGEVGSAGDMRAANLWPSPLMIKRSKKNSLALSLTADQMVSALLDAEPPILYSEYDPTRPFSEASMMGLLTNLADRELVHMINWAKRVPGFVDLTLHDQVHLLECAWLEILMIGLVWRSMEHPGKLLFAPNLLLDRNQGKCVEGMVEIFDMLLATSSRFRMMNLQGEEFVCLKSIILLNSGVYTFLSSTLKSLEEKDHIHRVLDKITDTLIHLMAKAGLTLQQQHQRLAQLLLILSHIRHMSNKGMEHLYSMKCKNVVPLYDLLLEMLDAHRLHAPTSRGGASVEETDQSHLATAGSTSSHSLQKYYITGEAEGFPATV
smiles,measurement,setting,value
COc1cc(C=O)cc2c1[C@H](COC(N)=O)[C@]1(OC(C)=O)ON2C[C@H]2[C@@H]1N2C(C)=O,Potency,[1],"inconclusive: 0.0776 µM [cytotoxic, full curve]"
same,Potency,[2],active: 0.0977 µM
same,Potency,[3],"inconclusive: 1.1 µM [cytotoxic, full curve]"
same,Potency,[4],"inconclusive: 24.3 µM [cytotoxic, partial curve]"
CN1[C@@H]2CC[C@H]1CC(OC(=O)c1cc(Cl)cc(Cl)c1)C2 (some centres undefined),Potency,[1],"inconclusive: 21.3 µM [cytotoxic, single point]"
same,Potency,[5],active: 23.9 µM
same,Potency,[3],"inconclusive: 21.3 µM [cytotoxic, partial curve, poor fit]"
same,Potency,[6],"inconclusive: 21.3 µM [cytotoxic, partial curve, poor fit]"
same,Potency,[7],inactive
same,Potency,[8],inactive
same,Potency,[9],"inconclusive: 15.8 µM [activator, partial curve, poor fit]"
CC(Cc1ccccc1)NCCCCl (centres undefined),Potency,[1],inactive
same,Potency,[10],inactive
same,Potency,[11],inactive
O.O.O.O=C([O-])[C@H]([O-])[C@@H]([O-])C(=O)[O-].O=C([O-])[C@H]([O-])[C@@H]([O-])C(=O)[O-].[K+].[K+].[Sb+3].[Sb+3],Potency,[1],"inconclusive: 62 µM [cytotoxic, partial curve, poor fit]"
same,Potency,[12],"inconclusive: 55.2 µM [activator, single point]"
same,Potency,[2],"inconclusive: 55.2 µM [activator, single point]"
same,Potency,[13],"inconclusive: 4.92 µM [activator, single point]"
same,Potency,[6],"inconclusive: 4.39 µM [rising, full curve]"
same,Potency,[4],active: 48.8 µM
same,Potency,[8],"inconclusive: 19.4 µM [cytotoxic, full curve, poor fit]"
C#CC(C)(C)NC(=O)c1cc(Cl)cc(Cl)c1,Potency,[1],inactive
same,Potency,[6],"inconclusive: 49.4 µM [cytotoxic, partial curve, poor fit]"
same,Potency,[11],"inconclusive: 49.4 µM [cytotoxic, single point]"
C=CC[C@]1(O)CC[C@H]2[C@@H]3CCC4=CC(=O)CCC4=C3C=C[C@@]21C,Potency,[1],"inconclusive: 26.8 µM [cytotoxic, partial curve]"
same,Potency,[14],"inconclusive: 26.8 µM [activator, single point]"
same,Potency,[3],"inconclusive: 26.8 µM [cytotoxic, partial curve]"
same,Potency,[11],"inconclusive: 21.3 µM [cytotoxic, partial curve]"
same,Potency,[4],"inconclusive: 33.5 µM [cytotoxic, single point]"
same,Potency,[8],"inconclusive: 33.5 µM [cytotoxic, single point]"
same,Potency,[15],active: 13.3 µM
same,Potency,[9],"inconclusive: 17.8 µM [activator, single point]"
COc1cccc(C=O)c1,Potency,[1],inactive
same,Potency,[12],inactive
CCCn1cc[n+](C)c1,Potency,[1],"inconclusive: 55.4 µM [cytotoxic, single point]"
same,Potency,[14],"inconclusive: 31.2 µM [activator, partial curve]"
same,Potency,[11],inactive
same,Potency,[16],inactive
CC(C)N(C(=O)CCl)c1ccccc1,Potency,[1],"inconclusive: 54.9 µM [cytotoxic, partial curve, poor fit] and inconclusive: 43.6 µM [cytotoxic, partial curve]"
same,Potency,[12],"inconclusive: 54.9 µM [activator, single point]"
same,Potency,[2],"inconclusive: 54.9 µM [activator, single point]"
same,Potency,[3],"inconclusive: 49 µM [cytotoxic, single point] and inconclusive: 43.6 µM [cytotoxic, partial curve]"
same,Potency,[6],"inconclusive: 49 µM [cytotoxic, single point]"
same,Potency,[11],inactive
same,Potency,[4],"inconclusive: 27.3 µM [cytotoxic, partial curve, poor fit]"
same,Potency,[8],"inconclusive: 68.6 µM [cytotoxic, partial curve, poor fit] and inconclusive: 61.1 µM [cytotoxic, single point]"
CC(C)(C)c1cc([N+](=O)[O-])cc([N+](=O)[O-])c1O,Potency,[1],"inconclusive: 15.4 µM [cytotoxic, full curve]"
same,Potency,[12],"inconclusive: 19.4 µM [activator, partial curve]"
same,Potency,[10],"inconclusive: 48.9 µM [falling, single point]"
same,Potency,[2],"inconclusive: 21.8 µM [activator, single point]"
same,Potency,[13],"inconclusive: 54.8 µM [activator, partial curve, poor fit]"
same,Potency,[6],"inconclusive: 12.3 µM [cytotoxic, full curve]"
same,Potency,[16],"inconclusive: 21.8 µM [activator, single point]"
same,Potency,[8],active: 12.2 µM
